# Reference: PMC7819943, “Rice protein-binding microarrays: a tool to detect cis-acting elements near promoter regions in rice”
# This is one part of the list.
# Target: T1, OsWOX13 (Oryza sativa, UniProt Q5QMM3 1-267)
# T1 sequence: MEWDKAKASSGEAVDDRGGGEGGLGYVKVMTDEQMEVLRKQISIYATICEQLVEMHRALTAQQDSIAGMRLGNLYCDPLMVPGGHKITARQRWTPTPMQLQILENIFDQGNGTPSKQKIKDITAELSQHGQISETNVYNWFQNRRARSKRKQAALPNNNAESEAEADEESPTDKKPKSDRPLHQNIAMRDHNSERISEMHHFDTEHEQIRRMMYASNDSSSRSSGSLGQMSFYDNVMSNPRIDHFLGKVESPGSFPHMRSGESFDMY
# Experiment: protein-binding microarray (RPBM); PBS, 2% BSA, 51.3 ng/ul salmon testes DNA, 50 uM zinc acetate, 200 nM TF, 25 C, 1 h; high values mean tight binding
# Settings: protein: recombinant; tags: N-terminal polyhistidine and DsRed monomer fusion (pET32a); label: CyDye5-dUTP incorporated in the synthesized complementary strand; 3' TTTTT single-stranded linker to array surface; dsDNA, one strand shown
# Procedure, shortened: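 Polyhistidine-tagged DsRed fusions of transcription factors, joined at the N-terminus, were expressed in E. coli BL21-CodonPlus and isolated on Ni–NTA. They were incubated at 200 nM for 1 h at 25 °C on a custom Agilent array, double-stranded and BSA-blocked, in PBS with 2% BSA, salmon testes DNA and 50 µM zinc acetate. The binding signal is per-feature fluorescence intensity (arbitrary units) read on an Axon 4000B scanner after washing.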
row,Sequence,binding signal
1,ACGTCATTATGAATGTAAATTGCACACAGGTAAATACAATCGGAGTCACCTAGTGCAG,3510 fluorescence intensity (a.u.)
2,CCAATCAACCAAGTAACAATGTAAACGGAGGTTTAACCACCGGAGTCACCTAGTGCAG,3140 fluorescence intensity (a.u.)
3,AATAATTAAGCATCACTTTCATAAGTATACAGAAGAGAAACGGAGTCACCTAGTGCAG,6100 fluorescence intensity (a.u.)
4,TTGTAATAATTAAAACTTAATTAATCATACATTAATACCACGGAGTCACCTAGTGCAG,17100 fluorescence intensity (a.u.)
5,TTATTACTACTTAATTAGTGTGTAACTAACGTGTACATAACGGAGTCACCTAGTGCAG,12000 fluorescence intensity (a.u.)
6,TTGATAGGCATATTTCAATCTAGCACCCTATCATCTTAATCGGAGTCACCTAGTGCAG,18700 fluorescence intensity (a.u.)
7,ATTCAAATTTGAAAAGTAAAATTTGGCTGAAATCTGATCGCGGAGTCACCTAGTGCAG,4260 fluorescence intensity (a.u.)
8,TGTTGACTAATGCATGTTTCTCTCATCGATCTTATAGGTTCGGAGTCACCTAGTGCAG,4620 fluorescence intensity (a.u.)
9,CTTAATTGTTTAGATATTATGTTTCTTTTCATACTTTGCTCGGAGTCACCTAGTGCAG,44100 fluorescence intensity (a.u.)
10,GAATTATTACTGATGAGATGGAAAATCAGAAAACGAAGAACGGAGTCACCTAGTGCAG,3740 fluorescence intensity (a.u.)
11,TACTGATGAGCCACTGACGGGTGGGGCCAGTTGACTGACACGGAGTCACCTAGTGCAG,6930 fluorescence intensity (a.u.)
12,CAAAATTGAACTTACTTGAACCTCACGACAGTTCAAACATCGGAGTCACCTAGTGCAG,6410 fluorescence intensity (a.u.)
13,CTTAAAATTAACACATCATGTATACTAGCTAACTTAATAGCGGAGTCACCTAGTGCAG,12000 fluorescence intensity (a.u.)
14,ATTTATAATTAGATGAAACGTACTTTGGTACCATGAAACTCGGAGTCACCTAGTGCAG,15700 fluorescence intensity (a.u.)
15,GTGACAAATAAAATATACGATGACTGCTTCGCCACTGGACCGGAGTCACCTAGTGCAG,3240 fluorescence intensity (a.u.)
16,TATCATATTGCTTGATTGCTGTGTAGCCTGTGTTTACCTTCGGAGTCACCTAGTGCAG,13300 fluorescence intensity (a.u.)
17,CGAAGTTGATAGGCGACGAAGCCCACAGCCCACCTATTGGCGGAGTCACCTAGTGCAG,5170 fluorescence intensity (a.u.)
18,CCTAATTATCTCTCTCTCCCTACCACGTCGTCTTCTCTTCCGGAGTCACCTAGTGCAG,25200 fluorescence intensity (a.u.)
19,GGTTAAATGACCATTTTATCCAAGTAACTTGTATAATAAGCGGAGTCACCTAGTGCAG,5900 fluorescence intensity (a.u.)
20,ATTTAATTTCTCCTTGGTCTTTGTGACAATAGTAATATGTCGGAGTCACCTAGTGCAG,9870 fluorescence intensity (a.u.)
21,AAATCAAATTAGACTGACATATTTTGATATTGGCTAAATCCGGAGTCACCTAGTGCAG,27900 fluorescence intensity (a.u.)
22,AAACATAATTTTAAGGACTACCGGAAAGATAAGGAGGTCGCGGAGTCACCTAGTGCAG,4040 fluorescence intensity (a.u.)
23,GAAATATTGATAATTTTATAAACTACTGACCGTGGAATCGCGGAGTCACCTAGTGCAG,12200 fluorescence intensity (a.u.)
24,GCTTGTCCTAATTTTAAGTCAAATTAATGTTGTGTTTACTCGGAGTCACCTAGTGCAG,8680 fluorescence intensity (a.u.)
25,GAGATTGACACACAACCGATAAAATAATATGATTATAGAACGGAGTCACCTAGTGCAG,19500 fluorescence intensity (a.u.)
26,ATATATATAATTAGGATTGTTATATGCATAGGTTTGCATTCGGAGTCACCTAGTGCAG,18400 fluorescence intensity (a.u.)
27,CCACCTACAAATCAATCTTAATAAGTTCATAAGGTTCATACGGAGTCACCTAGTGCAG,3980 fluorescence intensity (a.u.)

row,Sequence,binding signal
1,GCCAATGACTTGACAAGTTGACATTGTATGGTCAAAGCCCCGGAGTCACCTAGTGCAG,5510 fluorescence intensity (a.u.)
2,TGTGGATTGAATCAGCTCAGAATTACTCCGCGGTGCCCCACGGAGTCACCTAGTGCAG,14400 fluorescence intensity (a.u.)
3,GCCCTGATTAACCATTCAAAAGTGGGCTATGTGGCCTTACCGGAGTCACCTAGTGCAG,23500 fluorescence intensity (a.u.)
4,ACTAATGGATTCTCTCTTAAATCTTTGCAAAGTACTAGAGCGGAGTCACCTAGTGCAG,7730 fluorescence intensity (a.u.)
5,AGTGAAATTAAAATTACTAAATTACAAAGGAGAGCACATGCGGAGTCACCTAGTGCAG,21700 fluorescence intensity (a.u.)
6,TCAGTTGATCAATCAATTAAGGAACTAGTCCACCAATCAACGGAGTCACCTAGTGCAG,34900 fluorescence intensity (a.u.)
7,TTTAAAAGCTTGATTGAGATTAGCGTGCAAAACACACGTTCGGAGTCACCTAGTGCAG,33000 fluorescence intensity (a.u.)
8,AAGCTATTAGATTGGCTATAGATGAATTGAAGTTAGTAGTCGGAGTCACCTAGTGCAG,26100 fluorescence intensity (a.u.)
9,GTATCATCAATCAGAGAGTGTAGTAGTAGCTAAGCTAGCTCGGAGTCACCTAGTGCAG,12800 fluorescence intensity (a.u.)
10,AGTGTAATGGATTGTAATGGATGACCACATATTGATATAGCGGAGTCACCTAGTGCAG,21000 fluorescence intensity (a.u.)
11,TACTGATTTGTTCTTTGATTTCTCATCTGATCACATGCCTCGGAGTCACCTAGTGCAG,36500 fluorescence intensity (a.u.)
12,TCATCATCATCATCATTATTAAAGTAAATTTCAGAAAACTCGGAGTCACCTAGTGCAG,3740 fluorescence intensity (a.u.)
13,CCACTACTACGCGATTGATTTTCCTAGACTCTTTGTTTCCCGGAGTCACCTAGTGCAG,7830 fluorescence intensity (a.u.)
14,AATGATAAAATTTTAATTAATCATATGCTAATGACTTACTCGGAGTCACCTAGTGCAG,24100 fluorescence intensity (a.u.)
15,AACAAAACTAATTGTCAAACTTATATCAGAAATCAACAGCCGGAGTCACCTAGTGCAG,13500 fluorescence intensity (a.u.)
16,CTGAAATTTATCATTCATAAAGGTGGAGTTTATGAAACATCGGAGTCACCTAGTGCAG,10200 fluorescence intensity (a.u.)
17,GGCAATCAATCAACCAATCACCAGCTTACAATTCGGCCACCGGAGTCACCTAGTGCAG,59300 fluorescence intensity (a.u.)
18,TGTAATTTGACTCGTTTGATGGTTTTGGAGGACGGTTTCTCGGAGTCACCTAGTGCAG,20200 fluorescence intensity (a.u.)
19,TTGTGATTGTAGTAATTATGTACTAGTAACGAAAATTCTGCGGAGTCACCTAGTGCAG,40100 fluorescence intensity (a.u.)
20,ATTTAATAAGCAATTAACGAAAATGGTAAATATCCCTAAACGGAGTCACCTAGTGCAG,5710 fluorescence intensity (a.u.)
21,ACGCGCGAGCTATATTTGATTGGGCTAGATGGGCCTCGCTCGGAGTCACCTAGTGCAG,4200 fluorescence intensity (a.u.)
22,CTTTGACGAATTCTGCCTCAGCGAGTATGCCCATTGGCTGCGGAGTCACCTAGTGCAG,3300 fluorescence intensity (a.u.)
23,CTTTAATAAATTAGAGGAATTTCTAATAATTCTTAGAAAACGGAGTCACCTAGTGCAG,5060 fluorescence intensity (a.u.)
24,CTGAGCAAAGATAATTTAAGATCCAAATGTATCCTCACAGCGGAGTCACCTAGTGCAG,3230 fluorescence intensity (a.u.)
25,AATAAACTAAATTCCCTTAATAGAGAGTTTCCAAAATATGCGGAGTCACCTAGTGCAG,10800 fluorescence intensity (a.u.)
26,AACCATCATCATTCATCACCAATCATGAGATCCACTCCCCCGGAGTCACCTAGTGCAG,6860 fluorescence intensity (a.u.)
27,GAACCATCAATCACACAACCAACGATACACAGTATCCCTACGGAGTCACCTAGTGCAG,17800 fluorescence intensity (a.u.)
